# Results as given in article PMC4336329 (PLoS ONE, 2015).
# Out of some 310,000 compounds screened, about 14,000 (4.5%) showed an effect of 50% or more. The effect is printed as a negative number. The list shows a part of the results.
# Biological target: human ether-à-go-go-related gene (hERG) potassium channel (human, UniProt Q12809)
# Assay: primary screen, population patch clamp on CHO cells stably expressing hERG
# 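Further: peak tail current of the secondary pulse compared with the same well before compound.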
# Sequence of human ether-à-go-go-related gene (hERG) potassium channel (Q12809 whole entry, looked up): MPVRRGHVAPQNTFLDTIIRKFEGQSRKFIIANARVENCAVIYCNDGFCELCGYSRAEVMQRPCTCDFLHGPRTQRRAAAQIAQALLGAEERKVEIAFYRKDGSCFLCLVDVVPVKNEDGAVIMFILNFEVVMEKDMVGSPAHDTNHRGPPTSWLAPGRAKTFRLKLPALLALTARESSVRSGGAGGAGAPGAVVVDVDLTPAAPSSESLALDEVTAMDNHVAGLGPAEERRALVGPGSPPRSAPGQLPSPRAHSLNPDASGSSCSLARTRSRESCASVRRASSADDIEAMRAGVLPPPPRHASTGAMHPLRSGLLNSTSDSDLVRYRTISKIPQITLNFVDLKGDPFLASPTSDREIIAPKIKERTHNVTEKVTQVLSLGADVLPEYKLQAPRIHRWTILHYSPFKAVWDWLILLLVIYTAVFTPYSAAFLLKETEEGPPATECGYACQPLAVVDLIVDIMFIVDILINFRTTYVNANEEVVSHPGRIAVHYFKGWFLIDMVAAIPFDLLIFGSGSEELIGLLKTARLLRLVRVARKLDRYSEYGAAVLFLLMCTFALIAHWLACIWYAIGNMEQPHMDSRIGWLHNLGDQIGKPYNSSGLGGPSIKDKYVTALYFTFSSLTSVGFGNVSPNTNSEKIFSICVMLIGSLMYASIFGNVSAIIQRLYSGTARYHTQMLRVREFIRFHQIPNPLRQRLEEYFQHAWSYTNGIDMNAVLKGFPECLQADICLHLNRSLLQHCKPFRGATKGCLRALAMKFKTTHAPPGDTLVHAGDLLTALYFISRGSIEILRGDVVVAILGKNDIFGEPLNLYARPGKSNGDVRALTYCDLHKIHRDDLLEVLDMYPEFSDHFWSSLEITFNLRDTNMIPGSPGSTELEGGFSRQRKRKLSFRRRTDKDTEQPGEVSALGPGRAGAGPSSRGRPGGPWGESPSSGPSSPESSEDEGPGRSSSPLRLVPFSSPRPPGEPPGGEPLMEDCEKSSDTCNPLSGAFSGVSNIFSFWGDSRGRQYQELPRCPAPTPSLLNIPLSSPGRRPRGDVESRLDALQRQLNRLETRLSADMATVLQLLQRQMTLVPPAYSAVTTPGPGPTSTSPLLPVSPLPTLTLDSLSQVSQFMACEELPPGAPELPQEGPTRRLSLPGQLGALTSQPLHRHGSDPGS
row,SMILES,"hERG current change (%, negative = inhibition) at 10uM"
1,CC(C)c1ccc(/C=N/NC(=O)CCNC(=O)c2ccccc2)cc1,-46.9%
2,COc1ccc(OC)c(S(=O)(=O)Nc2cc(OC)c(Cl)cc2OC)c1,-1.68%
3,COc1ccc(C2C(C(=O)OCC(=O)NC(C)(C)C)CCC(=O)N2c2ccc(C)cc2)cc1OC (centres unmarked),-3.73%
4,O=C(Nc1nccs1)c1ccc(N2C(=O)[C@@H]3[C@H](C2=O)[C@H]2C=C[C@@H]3C2)cc1,-0.0452%
5,CCCc1nnc(SCC(=O)N2CCCCC2C)n1CCOC (centres unmarked),5.36%
6,Cc1cc(C)n(CC(C)NCc2c(C(=O)N3CCOCC3)nc3c(C)cccn23)n1 (centres unmarked),16.8%
7,CCOc1ccc(C2CC(c3ccccc3C)n3ncnc3N2)cc1 (centres unmarked),2.8%
8,CC(=O)N1c2ccccc2CCc2ccc([N+](=O)[O-])cc21,2.5%
9,O=C1/C(=C/c2cccc(O)c2)SC(=S)N1CC1CCCO1 (centres unmarked),5.14%
10,O=C(COC(=O)c1c2c(nc3ccccc13)/C(=C\c1cccs1)CCC2)Nc1ccccc1,-9.7%
11,O=C(CN1C(=O)c2ccccc2S1(=O)=O)NCCSCc1ccco1,-9.29%
12,CCOC(=O)c1ccc(NC(=O)c2c(C)[nH]c(C(=O)OCC)c2C)cc1,-6.95%
13,OCc1nc(CO)n(Cc2ccccc2)n1,-10.5%
14,COc1cc(NC(=O)COC(=O)C=C(C)C)c(C)cc1[N+](=O)[O-],-2.51%
15,NS(=O)(=O)c1ccc(NC(=O)/C=C/c2ccco2)cc1,9.69%
16,O=C(O)c1nn(CC(=O)N2CCCCCC2)c(=O)c2ccccc12,2.16%
17,O=c1[nH]c(=O)n(CCC2=CCCCC2)c(O)c1C=NCc1cccnc1,-6.53%
18,O=C(CSc1nnc(C2COc3ccccc3O2)o1)N1CCN(c2ccccc2)CC1 (centres unmarked),8.03%
19,N#Cc1c(N2CCN(C(=O)c3ccco3)CC2)nc(-c2ccccc2)c2c1CCCC2,-5.84%
20,CCCCCCn1cnc2c(oc3nc4c(cc32)CCCC4)c1=O,5.16%
21,Cc1c(NC(=O)C2CCCCC2)cc(C(=O)N2CCOCC2)cc1[N+](=O)[O-],-3.33%
22,CN1CC2([N+](=O)[O-])CC=C(Oc3ccccc3)C([N+](=O)[O-])(C1)C2 (centres unmarked),4.85%
23,COc1ccc(NC(=O)CSc2nc3[nH]ncc3c(=O)[nH]2)cc1OC,7.74%

row,SMILES,"hERG current change (%, negative = inhibition) at 10uM"
1,O=C(c1cc2ccccc2o1)N(Cc1ccco1)Cc1cccs1,-35.4%
2,COc1ccccc1CCN1CCCC(CN(C)CC(C)(C)CO)C1 (centres unmarked),-0.609%
3,O=C(Nc1ccccc1N1CCOCC1)C1(c2ccc(Cl)cc2)CCC1,13.4%
4,COc1ccc2[nH]c(=O)c(CN(C(=O)c3ccncc3)C(C)(C)C)cc2c1,11.8%
5,O=C(Oc1nsnc1N1CCCCC1)N1CCOCC1,15.5%
6,Nc1nnc(Cc2ccc(Cl)cc2)s1,3.36%
7,Cc1ccc(Cn2cccc2/C=N/NC(=S)Nc2ccc(C)cc2)cc1,14.7%
8,COCCNC(=S)N/N=C(\C)c1ccc(C)c([N+](=O)[O-])c1,-26.6%
9,Cn1c(N)c(C(=O)COC(=O)C2CCN(S(=O)(=O)c3cccs3)CC2)c(=O)n(C)c1=O,-35.2%
10,Cc1ccc(N2C(=O)c3ccccc3C2Nc2ccccc2F)nc1 (centres unmarked),5.5%
11,Cc1cc(C)c(S(=O)(=O)N(C)CC(=O)N2CCCCC2)c(C)c1,-13.7%
12,CCn1cc(/C=N\NC(=O)c2ccc(Cl)cc2)cn1,-0.233%
13,O=C(Cc1cccs1)Nc1nnc(SCc2cccc3ccccc23)s1,-7.66%
14,Nc1nc(N)nc(-c2ccccn2)n1,1.82%
15,CC1CCN(C(=O)CN2C(=O)C(C)(C)Oc3ccc(C(=O)NC(C)C)cc32)CC1,-8.44%
16,O=C(CNC(=O)c1ccc([N+](=O)[O-])cc1)c1ccccc1,-6.36%
17,C/C=C(\C)CN1CCC(Oc2ccc(C(=O)NCc3ccccn3)cc2)CC1,3.53%
18,Cc1ccc(N=C/C(C(=O)C(F)(F)F)=C(\O)c2cccs2)cc1,23.3%
19,CC(=O)c1c(C)oc2ccc(N(C(C)=O)S(=O)(=O)c3cccc([N+](=O)[O-])c3)cc12,8.76%
20,Cc1nn(-c2ccccc2)c(N2CCCC2)c1/C=C1\N=C(c2ccc(F)cc2)OC1=O,10.6%
21,CS(=O)(=O)c1ccc2nc(NC(=O)C3CC(=O)N(c4ccc(F)cc4)C3)sc2c1 (centres unmarked),-7.42%
22,COc1cccc2c1OC1(C)CC2NC(=O)N1c1cccc(C(=O)Nc2ccc3c(c2)OCCO3)c1 (centres unmarked),0.486%
23,O=C(NC1CCCCCCC1)C1=COCCO1,14.4%

row,SMILES,"hERG current change (%, negative = inhibition) at 10uM"
1,NC(=O)C1CCN(c2cc(Cl)ccc2[N+](=O)[O-])CC1,3.89%
2,CC(C)(C)CC(=O)O/N=C(\N)c1ccncc1,7.32%
3,COC(=O)c1ccc(COc2ccccc2/C=N/NC(=O)c2cccnc2)cc1,28.7%
4,CCOC(=O)CC1ON(C)C(=O)N1c1ccc(Cl)cc1Cl (centres unmarked),-21.7%
5,CCc1c(O)nc(SCC(=O)c2ccccc2)n(-c2ccccc2)c1=O,14.2%
6,COC(=O)C(C(=O)OC)=C(/C=C/N(C)C)N(C)C,1.95%
7,CCOc1ccc(C(=O)NCc2cccs2)cc1,-2.2%
8,CCOC(=O)c1c(N)nn(C(=O)C(C)(C)C)c1-c1ccccc1,11.4%
9,COCCNS(=O)(=O)c1ccc(SC)cc1,10.2%
10,C=CCn1c(COc2ccccc2)nc2ccccc21,-7.62%
11,Cc1cc(C(=O)OCC(=O)c2ccc(Cl)c([N+](=O)[O-])c2)c2cccc(C)c2n1,6.36%
12,COC(=O)c1sccc1NC(=O)c1ccco1,14.8%
13,Cc1nc2ccccc2c(=O)n1CC(=O)N1CCOCC1,6.19%
14,O=C(O)C[C@H]1c2cc(C(F)(F)F)ccc2S(=O)(=O)N1C1CCCCC1,30.3%
15,CC(C)(C)C(=O)CSc1ncccn1,36.3%
16,CN(C)CCCSc1ccccc1NC(=O)/C=C/c1ccccc1.Cl.O,-29.5%
17,Cc1ccc2c(c1)c1c3n2CCN(C(=O)C2CC2)C3CCC1 (centres unmarked),-17.1%
18,Cc1ccc(CNC(=O)CNC(=O)c2ccc(Br)o2)cc1,5.03%
19,CCOc1ccc(CCNC(=O)COc2cc(=O)n(C)c3ccccc23)cc1OCC,-16.7%
20,Cc1cc(C)cc(-n2c(O)c(C=NC3CCS(=O)(=O)C3)c3ccccc3c2=O)c1 (centres unmarked),-19.4%
21,COc1ccccc1CNCC(=O)Nc1ccc(N(C)C)cc1.O=C(O)C(=O)O,11.4%
22,Cc1ccc(Cl)cc1N1CCN(C(=S)NCCc2ccccc2)CC1,19.7%
23,CCOC(=O)/C=c1\s/c(=C\c2ccccc2OC)c(=O)n1CC(=O)N1CCOCC1,-3.88%

row,SMILES,"hERG current change (%, negative = inhibition) at 10uM"
1,Cc1cc(C)c(C#N)c(SCc2ccccc2F)n1,21.2%
2,CCOC(=O)N1CCN(C(=O)Cn2ncc3ccccc32)CC1,8.94%
3,Cc1cccc(NC(=O)CSCC(=O)N=c2sccn2C)c1,-20.2%
4,Cc1cc(=O)[nH]c(SCC(=O)NN(c2ccccc2)c2ccccc2)n1,0.845%
5,COc1cc2c(cc1OC)C(COc1ccccc1OC)N(C(=O)C(C)(C)C)CC2 (centres unmarked),-2.37%
6,COCC(=O)N1CCC(Oc2ccc(C(=O)N3CCCCC3COC)cc2)CC1 (centres unmarked),16.8%
7,CCCCn1c(N)c(N(CC(C)C)C(=O)c2cccs2)c(=O)[nH]c1=O,2.2%
8,COc1ccc([N+](=O)[O-])cc1NC(=O)CSc1nc(C)cc(C)n1,-5.69%
9,Cn1c(=O)c2[nH]c(N=NNc3ccccc3F)nc2n(C)c1=O,-4.08%
10,O=C1CCCC2=C1C(c1ccco1)Nc1ccc(C(=O)c3ccccc3)cc1N2 (centres unmarked),6.94%
11,Nc1c(-c2ccccc2)cnc2ncnn12,4.56%
12,Cc1ccccc1-c1nn(-c2ccc(F)cc2F)cc1CNCCCO,-11.2%
13,Cc1oc(-c2ccc(Cl)cc2)nc1CS(=O)CC(=O)NCc1ccco1 (centres unmarked),-35.6%
14,O=C(Cn1cc(C(=S)N2CCOCC2)c2ccccc21)N1CCOCC1,17.8%
15,COc1ccc(/C=N/NC(=O)c2ccc(C)nc2)cc1O,11.8%
16,COCCN1C(=O)C(=O)/C(=C(/O)c2cccc(S(=O)(=O)N(C)C)c2)C12C(=O)N(C)c1ccccc12 (centres unmarked),3.81%
17,CCOc1ccc(NC(=O)C(=S)NC2CCCCC2)cc1,-5.86%
18,CC1(C)C(=O)Nc2ccccc2N1C(=O)CSc1nnc2ccccn12,12.7%
19,C=CCn1c(SCC(=O)NC2CCS(=O)(=O)C2)nnc1-c1cc2c(s1)CCC(CC)C2 (centres unmarked),-15.8%
20,O=C(NCc1ccccc1)C1CCC(CNc2c(N3CCCCC3)c(=O)c2=O)CC1 (centres unmarked),15.5%
